Holding throughout (assay): cell-based or functional assay
In test [1] the target is T1, mouse RXFP1 (mouse, UniProt Q6R6I7 1-758).
T1 sequence (looked up): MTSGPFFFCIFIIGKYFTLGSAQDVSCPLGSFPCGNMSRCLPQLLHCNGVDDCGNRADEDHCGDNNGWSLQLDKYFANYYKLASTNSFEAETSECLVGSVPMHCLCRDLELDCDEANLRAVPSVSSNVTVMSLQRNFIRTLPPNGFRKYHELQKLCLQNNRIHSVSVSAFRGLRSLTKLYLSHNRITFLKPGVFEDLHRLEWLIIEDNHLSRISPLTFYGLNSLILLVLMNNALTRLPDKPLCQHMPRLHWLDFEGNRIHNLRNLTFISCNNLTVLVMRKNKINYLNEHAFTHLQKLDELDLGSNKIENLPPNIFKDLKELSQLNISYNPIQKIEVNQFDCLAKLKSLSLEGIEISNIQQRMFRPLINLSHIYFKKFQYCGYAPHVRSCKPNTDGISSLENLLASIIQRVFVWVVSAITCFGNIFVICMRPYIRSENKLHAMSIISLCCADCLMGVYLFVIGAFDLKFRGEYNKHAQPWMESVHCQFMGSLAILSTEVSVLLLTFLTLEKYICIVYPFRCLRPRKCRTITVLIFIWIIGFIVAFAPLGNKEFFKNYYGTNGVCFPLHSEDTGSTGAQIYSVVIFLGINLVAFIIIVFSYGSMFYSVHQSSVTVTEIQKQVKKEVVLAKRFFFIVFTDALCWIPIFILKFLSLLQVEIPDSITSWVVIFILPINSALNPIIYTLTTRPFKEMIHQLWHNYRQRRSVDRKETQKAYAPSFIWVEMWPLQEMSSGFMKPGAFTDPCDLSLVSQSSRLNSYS

For test [2], the target named is T2, human RXFP1 (human, UniProt Q9HBX9 1-757).
T2 sequence (looked up): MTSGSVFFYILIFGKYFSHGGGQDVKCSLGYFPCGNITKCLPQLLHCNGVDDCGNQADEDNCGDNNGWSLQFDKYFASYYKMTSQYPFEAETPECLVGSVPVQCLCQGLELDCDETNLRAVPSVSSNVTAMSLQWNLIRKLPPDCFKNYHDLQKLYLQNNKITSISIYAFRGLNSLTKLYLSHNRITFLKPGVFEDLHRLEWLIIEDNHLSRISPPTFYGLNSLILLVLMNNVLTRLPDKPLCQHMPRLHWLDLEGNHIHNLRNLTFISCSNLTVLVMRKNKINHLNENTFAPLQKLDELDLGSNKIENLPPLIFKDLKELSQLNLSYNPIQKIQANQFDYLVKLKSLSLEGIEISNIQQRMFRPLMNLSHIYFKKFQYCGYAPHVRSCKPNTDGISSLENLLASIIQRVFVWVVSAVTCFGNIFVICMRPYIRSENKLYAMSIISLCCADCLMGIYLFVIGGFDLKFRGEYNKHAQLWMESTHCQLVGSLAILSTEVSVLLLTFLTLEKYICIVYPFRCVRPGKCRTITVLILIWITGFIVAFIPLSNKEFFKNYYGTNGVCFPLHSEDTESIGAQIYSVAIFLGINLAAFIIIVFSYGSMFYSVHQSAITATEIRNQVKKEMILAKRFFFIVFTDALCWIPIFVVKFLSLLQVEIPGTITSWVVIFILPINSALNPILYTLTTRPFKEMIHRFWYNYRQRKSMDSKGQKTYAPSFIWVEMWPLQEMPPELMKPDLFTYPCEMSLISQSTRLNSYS

For test [3], the target named is T3, human RXFP2 (human, UniProt Q8WXD0 1-754).
T3 sequence (looked up): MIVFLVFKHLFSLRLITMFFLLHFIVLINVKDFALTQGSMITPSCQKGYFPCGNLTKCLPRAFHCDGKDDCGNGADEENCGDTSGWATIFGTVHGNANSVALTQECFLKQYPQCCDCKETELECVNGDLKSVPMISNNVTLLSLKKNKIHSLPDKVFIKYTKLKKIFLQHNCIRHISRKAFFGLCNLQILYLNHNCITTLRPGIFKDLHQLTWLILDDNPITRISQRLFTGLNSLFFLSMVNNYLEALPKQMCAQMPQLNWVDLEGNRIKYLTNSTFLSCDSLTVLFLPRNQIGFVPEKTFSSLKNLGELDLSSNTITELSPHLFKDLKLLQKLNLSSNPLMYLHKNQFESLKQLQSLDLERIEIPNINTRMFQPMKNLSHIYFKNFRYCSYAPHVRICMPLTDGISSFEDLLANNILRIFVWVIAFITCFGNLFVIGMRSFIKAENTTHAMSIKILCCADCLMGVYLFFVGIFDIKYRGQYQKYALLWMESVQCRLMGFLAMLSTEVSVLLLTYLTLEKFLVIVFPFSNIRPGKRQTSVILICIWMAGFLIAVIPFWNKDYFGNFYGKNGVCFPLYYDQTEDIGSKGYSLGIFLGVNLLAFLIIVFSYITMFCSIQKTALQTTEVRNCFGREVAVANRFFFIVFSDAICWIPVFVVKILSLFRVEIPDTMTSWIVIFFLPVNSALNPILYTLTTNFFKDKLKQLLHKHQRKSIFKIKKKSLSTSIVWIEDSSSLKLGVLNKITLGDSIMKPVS

Test [4] has as its target T1, mouse RXFP1. This is another data set of the same source.
Test [5] addresses T2, human RXFP1. The source holds these as a separate data set.
Test [6] has as its target T3, human RXFP2. The source holds these as a separate data set.

Read-outs that look alike come from different tables or passages of the source.

B1: RELAX0010 (Fc fusion)
chain: [human IgG1 Fc not given here]GGGGSGGGGSGGGGSQLYSALANKCCHVGCTKRSLARFCGGGGSGGGGSGGGGSSWMEEVIKLCGRELVRAQIAICGMSTWS
Turning to B1, the “EC50 mRXFP1 (M), cAMP HTRF assay” value in the test with mouse RXFP1 [1] and in the test with mouse RXFP1 [4] was 7.64e-12 M each time. The “EC50 hRXFP1 (M), cAMP HTRF assay” value in the test with human RXFP1 [2] and with human RXFP1 [5] was 8.3e-12 M each time. Further, the “EC50 hRXFP2 (M), cAMP HTRF assay” value with human RXFP2 [3] and with human RXFP2 [6] was 2.88e-07 M each time.
